The other results are listed elsewhere or left out.

The experiment deals with T1, MBP-FoxP1dN (Mus musculus, UniProt P58462 326-579).
T1 sequence: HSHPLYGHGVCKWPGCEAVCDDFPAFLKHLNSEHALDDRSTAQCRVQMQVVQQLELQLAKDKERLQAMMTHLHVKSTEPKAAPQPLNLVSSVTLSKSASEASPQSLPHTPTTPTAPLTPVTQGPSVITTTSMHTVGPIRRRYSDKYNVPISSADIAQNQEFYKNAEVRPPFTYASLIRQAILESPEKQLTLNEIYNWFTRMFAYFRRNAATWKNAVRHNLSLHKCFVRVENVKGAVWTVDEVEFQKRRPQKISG
Description: PD-seq (MBP pull-down with sequencing); 20 mM Tris-HCl pH 7.5, 100 mM NaCl, 1.5 mM MgCl2, 0.4 uM protein, 0.1 uM dsDNA library, 30 min, room temperature, amylose pull-down; high values mean tight binding. The conditions noted are these: protein: recombinant; tags: His6-MBP; chain copies: 2; dsDNA, one strand shown. In short, it runs like this:
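His6-MBP-tagged mouse FoxP3 or FoxP1 fragment lacking the N-terminus, expressed in E. coli, was mixed at 0.4 µM with 0.1 µM Klenow-filled double-stranded degenerate DNA library. Incubation was 30 min at room temperature in Tris pH 7.5 buffer with NaCl and MgCl2. Complexes were caught on amylose resin and washed three times; DNA was released with proteinase K, PCR-barcoded and Illumina-sequenced. Binding is reads-per-million enrichment, pull-down over input, with replicates pooled.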
Take “GATGATTGTTCTCCCAGCTGATGAATTGAGGGCTTCGAGTAAACAAATTTTCCTAATCTTTCTGTTCAAGCGCCATCTAC”: the binding signal was 0.758 RPM ratio (pull-down/input).
For the sequence “GATGATTGTTCTCCCAGCTGATGAATTGTGGGGGTCGAGTAAACAAATTTTCCTAATCTTTCTGTTCAAGCGCCATCTAC”, the binding signal was 0.889 RPM ratio (pull-down/input).
For the sequence “GATGATTGTTCTCCCAGCTGATGAATTGCCTCAATCGAGTAAACAAATTTTCCTAATCTTTCTGTTCAAGCGCCATCTAC”, the binding signal is 1.02 RPM ratio (pull-down/input).
“GATGATTGTTCTCCCAGCTGATGAATTTCGACTCTCGAGTAAACAAATTTTCCTAATCTTTCTGTTCAAGCGCCATCTAC”: the binding signal was 0.73 RPM ratio (pull-down/input).
As for “GATGATTGTTCTCCCAGCTGATGAATTCGTGATTTCGAGTAAACAAATTTTCCTAATCTTTCTGTTCAAGCGCCATCTAC”, the figure is 1.02 RPM ratio (pull-down/input); as for “GATGATTGTTCTCCCAGCTGATGAATTGATCCAATCGAGTAAACAAATTTTCCTAATCTTTCTGTTCAAGCGCCATCTAC”, 1.04 RPM ratio (pull-down/input).
Regarding “GATGATTGTTCTCCCAGCTGATGAATTGGGTCGGTCGAGTAAACAAATTTTCCTAATCTTTCTGTTCAAGCGCCATCTAC”, the binding signal is 0.746 RPM ratio (pull-down/input).
As for “GATGATTGTTCTCCCAGCTGATGAATTGTGGTGTTCGAGTAAACAAATTTTCCTAATCTTTCTGTTCAAGCGCCATCTAC”, the figure is 1.31 RPM ratio (pull-down/input).
For the sequence “GATGATTGTTCTCCCAGCTGATGAATTCGGCTTATCGAGTAAACAAATTTTCCTAATCTTTCTGTTCAAGCGCCATCTAC”, the binding signal was 0.921 RPM ratio (pull-down/input).
As for “GATGATTGTTCTCCCAGCTGATGAATTTAGTGAATCGAGTAAACAAATTTTCCTAATCTTTCTGTTCAAGCGCCATCTAC”, the figure is 0.958 RPM ratio (pull-down/input).
As for “GATGATTGTTCTCCCAGCTGATGAATTTCAGGCATCGAGTAAACAAATTTTCCTAATCTTTCTGTTCAAGCGCCATCTAC”, the figure is 0.927 RPM ratio (pull-down/input); as for “GATGATTGTTCTCCCAGCTGATGAATTTCGCCGTTCGAGTAAACAAATTTTCCTAATCTTTCTGTTCAAGCGCCATCTAC”, 0.799 RPM ratio (pull-down/input); as for “GATGATTGTTCTCCCAGCTGATGAATTTCTGATATCGAGTAAACAAATTTTCCTAATCTTTCTGTTCAAGCGCCATCTAC”, 1.05 RPM ratio (pull-down/input).
As for “GATGATTGTTCTCCCAGCTGATGAATTAGCAACATCGAGTAAACAAATTTTCCTAATCTTTCTGTTCAAGCGCCATCTAC”, the figure is 1.38 RPM ratio (pull-down/input); as for “GATGATTGTTCTCCCAGCTGATGAATTTGTATAATCGAGTAAACAAATTTTCCTAATCTTTCTGTTCAAGCGCCATCTAC”, 1.56 RPM ratio (pull-down/input).
With “GATGATTGTTCTCCCAGCTGATGAATTTTTCAGCTCGAGTAAACAAATTTTCCTAATCTTTCTGTTCAAGCGCCATCTAC”, the binding signal was 0.846 RPM ratio (pull-down/input).
Turning to “GATGATTGTTCTCCCAGCTGATGAATTGGCTTATTCGAGTAAACAAATTTTCCTAATCTTTCTGTTCAAGCGCCATCTAC”, the binding signal was 0.977 RPM ratio (pull-down/input).
As for “GATGATTGTTCTCCCAGCTGATGAATTCGCGGCTTCGAGTAAACAAATTTTCCTAATCTTTCTGTTCAAGCGCCATCTAC”, the figure is 0.811 RPM ratio (pull-down/input); as for “GATGATTGTTCTCCCAGCTGATGAATTCCCGCTCTCGAGTAAACAAATTTTCCTAATCTTTCTGTTCAAGCGCCATCTAC”, 0.763 RPM ratio (pull-down/input); as for “GATGATTGTTCTCCCAGCTGATGAATTCCCGAGATCGAGTAAACAAATTTTCCTAATCTTTCTGTTCAAGCGCCATCTAC”, 0.874 RPM ratio (pull-down/input).
As for “GATGATTGTTCTCCCAGCTGATGAATTTTCGGACTCGAGTAAACAAATTTTCCTAATCTTTCTGTTCAAGCGCCATCTAC”, the figure is 0.807 RPM ratio (pull-down/input); as for “GATGATTGTTCTCCCAGCTGATGAATTAAGCAACTCGAGTAAACAAATTTTCCTAATCTTTCTGTTCAAGCGCCATCTAC”, 1.08 RPM ratio (pull-down/input).
Turning to “GATGATTGTTCTCCCAGCTGATGAATTGTCCTAGTCGAGTAAACAAATTTTCCTAATCTTTCTGTTCAAGCGCCATCTAC”, the binding signal is 0.994 RPM ratio (pull-down/input).
As for “GATGATTGTTCTCCCAGCTGATGAATTCCATACTTCGAGTAAACAAATTTTCCTAATCTTTCTGTTCAAGCGCCATCTAC”, the figure is 0.846 RPM ratio (pull-down/input).
As for “GATGATTGTTCTCCCAGCTGATGAATTCCTAAAATCGAGTAAACAAATTTTCCTAATCTTTCTGTTCAAGCGCCATCTAC”, the figure is 0.966 RPM ratio (pull-down/input); as for “GATGATTGTTCTCCCAGCTGATGAATTAGATACATCGAGTAAACAAATTTTCCTAATCTTTCTGTTCAAGCGCCATCTAC”, 1.25 RPM ratio (pull-down/input); as for “GATGATTGTTCTCCCAGCTGATGAATTCGTTCCATCGAGTAAACAAATTTTCCTAATCTTTCTGTTCAAGCGCCATCTAC”, 0.838 RPM ratio (pull-down/input).
As for “GATGATTGTTCTCCCAGCTGATGAATTTGTCTTTTCGAGTAAACAAATTTTCCTAATCTTTCTGTTCAAGCGCCATCTAC”, the figure is 1.27 RPM ratio (pull-down/input); as for “GATGATTGTTCTCCCAGCTGATGAATTCGACCTTTCGAGTAAACAAATTTTCCTAATCTTTCTGTTCAAGCGCCATCTAC”, 0.853 RPM ratio (pull-down/input); as for “GATGATTGTTCTCCCAGCTGATGAATTATGCTAGTCGAGTAAACAAATTTTCCTAATCTTTCTGTTCAAGCGCCATCTAC”, 1.05 RPM ratio (pull-down/input).
As to “GATGATTGTTCTCCCAGCTGATGAATTAGAGTATTCGAGTAAACAAATTTTCCTAATCTTTCTGTTCAAGCGCCATCTAC”, the binding signal is 1.09 RPM ratio (pull-down/input).
As to “GATGATTGTTCTCCCAGCTGATGAATTGTTATTGTCGAGTAAACAAATTTTCCTAATCTTTCTGTTCAAGCGCCATCTAC”, the binding signal was 3.45 RPM ratio (pull-down/input).

For the origin of these results see paper PMC12820563, “FoxP3 forms a head-to-head dimer in vivo and stabilizes its multimerization on adjacent microsatellites”.
